# Measured values as given in PubChem BioAssay (NCATS).
# Inconclusive results, whose numbers are uncertain, are shown with a selection of clear calls. For some of these results: Potencies beside an inconclusive call are fits to weak or partial responses and may not hold up. Active and inactive are the calls of the source. Unless noted, calls follow the shape of the dose curve; as a rule, active = well fitted curve in the direction sought with a large enough effect; inconclusive = small, poorly fitted or top-dose-only effect, or another doubt; inactive = no such curve, though single readings can be large; an effect the other way counts as inactive or inconclusive.
# Columns and labels:
# [1] = NFAT Signaling Pathway (AID 444; active = well fitted curve in either direction with a large enough effect, not every such curve was filed as active; inconclusive = small, poorly fitted or top-dose-only effect, or another doubt;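 also: carbachol stimulus at about its EC50 of 1 µM final; % is scaled to controls: 0 for no effect and ±100 for the full control effect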); conditions: Jurkat NFAT-bla M1, carbachol, beta-lactamase ratio, 5 h; at 7.69 µM (top of the series) unless noted
# Outline: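 Read-out: CCF4 FRET ratio (460 nm/530 nm) after 1 h RT dye loading, used for %activity and AC50 from titration series. Cells: Jurkat NFAT-β-lactamase/M1 line, treated with compound plus 1 uM carbachol for 5 h, 37 °C.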
# [2] = biological target: Mitogen-activated protein kinase 10 (Mus musculus) (UniProt Q61831); assay: JNK3 AlphaScreen Assay (AID 530; active = well fitted curve in either direction with a large enough effect, not every such curve was filed as active; inconclusive = small, poorly fitted or top-dose-only effect, or another doubt;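 also: kinase came from lysate of stimulated human HepG2 cells; signal reports phosphorylation of biotinylated GST-cJun 1-79 at Ser73 with 10 µM ATP; % is scaled to controls: 0 for no effect and ±100 for the full control effect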); conditions: JNK3 lysate, c-Jun phosphorylation; activity change, negative = inhibition: at 57.1 µM (top of the series)
# Outline: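 Compound titrations were preincubated 15 minutes at room temperature with substrate, antibody and pre-activated JNK3-containing HepG2 lysate. Reactions were started with 10 uM ATP and stopped with EDTA-containing bead buffer for AlphaScreen detection.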
# [3] = biological target: 3',5'-cyclic-AMP phosphodiesterase 4B (Homo sapiens) (UniProt Q07343); assay: qHTS Assay for Inhibitors of PDE-IV (AID 607; active = well fitted activation curve with a large enough effect in the main read-out, with a control signal flat, not every such curve was filed as active; inconclusive = small, poorly fitted or top-dose-only effect, or effect the other way, or a change in a side signal; also: potency is read from the fitted curve at half-maximal effect); conditions: HEK293 ACTOne CNG channel cells, membrane potential fluorescence; activation (PDE inhibition): at 22.9 µM (top of the series)
# Outline: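 The readout is membrane depolarisation from a cAMP-sensing CNG channel, detected with a potential dye at ex 535/em 590. Cells were HEK293-derived (endogenous PDE-IV) at 1000 cells/well, titrated up to 22.9 uM final.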
# [4] = qHTS Assay for Identification of Small Molecule Agonists for Hypoxia Response Element Signaling Pathway (AID 914; active = well fitted activation curve with a large enough effect in the signal ratio, with a control signal flat, not every such curve was filed as active; inconclusive = small, poorly fitted or top-dose-only effect, or effect the other way, or a change in a side signal; the % refers to the signal ratio; also: potency is read from the fitted curve at half-maximal effect; as to activation: top concentration of the series differs between compounds; % of control where 0% means no effect); conditions: ME-180 (cervical carcinoma) HRE-bla reporter, beta-lactamase ratio, CoCl2, 17 h; activation: stronger effect = higher value
# Outline: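 In Opti-MEM containing 0.5% dialyzed FBS and 10 mM HEPES, ME-180 HRE-bla cells received a compound titration and EC50 CoCl2. They were incubated 17 hours, then CCF4-loaded 2.5 hours at room temperature before ratio reading.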
# [5] = biological target: Dual specificity protein kinase CLK4 (Homo sapiens) (UniProt Q9HAZ1); assay: qHTS Assay for Inhibitors of CDC-like Kinase 4 (ADP-FP Assay) (AID 1795);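 also: recombinant human CLK4 phosphorylating RS repeat peptide at 1 µM ATP; potency is read from the fitted curve at half-maximal effect; nearly all actives have a fitted effect of over 60% in size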
# Outline: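 Kinase activity was measured as ADP production using Transcreener orange tracer (4 nM) and ADP antibody (1 ug/mL) fluorescence polarization, with ADP calculated from a calibration curve. The 1 h reaction contained 6.25 nM Clk4, 1 uM ATP and 100 uM RS peptide at pH 7.5 with Mg2+.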
# [6] = Primary qHTS for small molecule stabilizers of the endoplasmic reticulum resident proteome: Secreted ER Calcium Modulated Protein (SERCaMP) assay (AID 1508630); conditions: SH-SY5Y GLuc-SERCaMP (Gaussia luciferase released on ER calcium loss) secretion, thapsigargin, luminescence; activity change, negative = inhibition: at 38.4 µM (top of the series) unless noted; also: potency is read from the fitted curve at half-maximal effect
# Outline: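 GLuc-SERCaMP-expressing SH-SY5Y cells, pretreated 16 h with compound, are challenged with thapsigargin to empty ER calcium stores; after 4 h, coelenterazine is added directly to the medium and luminescence is imaged.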
# [7] = biological target: Ubiquitin carboxyl-terminal hydrolase 1 (Homo sapiens) (UniProt O94782); assay: Inhibitors of USP1/UAF1: Pilot qHTS (AID 504865);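 also: rhodamine fluorescence freed from ubiquitin-rhodamine substrate followed over time; potency is read from the fitted curve at half-maximal effect; nearly all actives have a fitted effect of over 35% in size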
# Outline: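 Deubiquitinase activity followed as kinetic rhodamine fluorescence release from 150 nM Ub-Rho. 1 nM USP1/UAF1 with compound, after 15 min room-temperature preincubation, in HEPES pH 7.8 buffer containing TCEP, EDTA, BSA and Tween-20.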
# [8] = qHTS Assay for Identification of Small Molecule Antagonists for NFkB Signaling Pathway (AID 895; active = well fitted inhibition curve with a large enough effect in the signal ratio, with a control signal flat, not every such curve was filed as active; inconclusive = small, poorly fitted or top-dose-only effect, or effect the other way, or a change in a side signal; the % refers to the signal ratio; also: % is scaled to controls: 0 for no effect and ±100 for the full control effect); conditions: NFkB beta-lactamase reporter cells, FRET ratio 460/530, stimulated with 10 pM TNF alpha; activity change, negative = inhibition: at 38.3 µM (top of the series)
# Outline: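 Beta-lactamase reporter read-out (460 and 530 nm emission ratio, 405 nm excitation, 2 hrs substrate loading RT) after 5 hr stimulation with 10 pM TNF alpha in compound-treated NFkB-bla ME-180 cells in low-serum medium.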
# [9] = qHTS Assay for Identification of Small Molecule Agonists for Thrombopoietin (TPO) Signaling Pathway (AID 917); also: potency is read from the fitted curve at half-maximal effect
# Outline: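 Reporter: GpIIb promoter–luciferase in murine Ba/F3 expressing human TPO receptor. Pre-starved of IL-3 overnight; compounds with 26 pM TPO, 24 hrs, 37 C/5% CO2; luminescence read.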
# [10] = biological target: Muscarinic acetylcholine receptor M1 (Rattus norvegicus) (UniProt P08482); assay: qHTS Assay for Antagonists of Acetylcholine Muscarinic M1 Receptor: Measurement of IP-One Response (AID 944); also: potency is read from the fitted curve at half-maximal effect; nearly all actives have a fitted effect of over 75% in size
# [11] = qHTS for differential inhibitors of proliferation of Plasmodium falciparum line GB4 (AID 1816); conditions: Potency: Plasmodium falciparum GB4 proliferation inhibition;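 also: potency is read from the fitted curve at half-maximal effect; parasite growth measured after 72 h incubation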
# [12] = qHTS for differential inhibitors of proliferation of Plasmodium falciparum line 3D7 (AID 1876); also: potency is read from the fitted curve at half-maximal effect
# [13] = qHTS for differential inhibitors of proliferation of Plasmodium falciparum line Dd2 (AID 1882); conditions: Potency: Plasmodium falciparum Dd2 proliferation inhibition; also: potency is read from the fitted curve at half-maximal effect; nearly all actives have a fitted effect of over 65% in size
# Outline: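 Dd2-infected erythrocytes (0.3% parasitemia, 2.5% hematocrit final) incubated with compound 72 h at 37 C, 5% CO2; lysed with saponin/Triton buffer containing SYBR Green I, incubated overnight in the dark, then read by fluorescence (485/535 nm). Normalized to 0.29 uM artemisinin and DMSO.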
# [14] = qHTS for differential inhibitors of proliferation of Plasmodium falciparum line HB3 (AID 1886); conditions: Potency: Plasmodium falciparum HB3 proliferation inhibition;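 also: potency is read from the fitted curve at half-maximal effect; parasites grown with compound for 72 h before SYBR Green readout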
# [15] = biological target: Ferritin light chain (Equus caballus) (UniProt P02791); assay: qHTS Validation Assay for Identification of Novel General Anesthetics (AID 2323); also: % is scaled to controls: 0 for no effect and ±100 for the full control effect
# Outline: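 Competitive displacement of the profluorescent anesthetic 1-AMA (50% saturated, PBS) from 10 uM apoferritin, 10 min, room temperature. Activity is normalized 380/535 nm fluorescence; concentration-response fitted with a four-parameter Hill equation.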
# [16] = biological target: RecQ-like DNA helicase BLM (Homo sapiens) (UniProt P54132); assay: qHTS Validation Assay for Inhibitors of Bloom's syndrome helicase (BLM) (AID 2364); also: potency is read from the fitted curve at half-maximal effect
# Outline: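 Forked 20-bp duplex substrate (200 nM, TAMRA/BHQ-2) plus 2 mM ATP added after 15 min compound preincubation with 50 nM enzyme, pH 8.0, poly(dI-dC) 2.5 ug/ml. Strand separation followed by fluorescence (525/598 nm) over 2 h, normalized to enzyme-free and DMSO controls.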
# [17] = biological target: ATP-dependent 6-phosphofructokinase (Trypanosoma brucei brucei) (UniProt O15648); assay: qHTS Validation Assay to Find Inhibitors of T. brucei phosphofructokinase (AID 485368); also: potency is read from the fitted curve at half-maximal effect
# Outline: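 Enzyme reaction in triethanolamine buffer pH 8.0 with 5 mM MgCl2, 0.01% Tween20 and 0.1% BSA; PFK 1.25 nM, F6P 0.5 mM, ATP 0.1 mM, 45 min RT. ADP quantified by ADP-Glo.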
# [18] = biological target: M-phase phosphoprotein 8 (Homo sapiens) (UniProt Q99549); assay: qHTS Validation Assay for Inhibitors for MPP8 Chromodomain Interactions with Methylated Histone Tails (AID 488949);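 also: AlphaScreen signal from MPP8 chromodomain bound to biotinylated H3K9me3 peptide; top concentration of the series differs between compounds; % is scaled to controls: 0 for no effect and ±100 for the full control effect; nearly all actives have a fitted effect of over 55% in size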
# Outline: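 AlphaScreen proximity signal from streptavidin donor and Ni-chelate acceptor beads (10 ug/mL each) reported binding of MPP8 to trimethyl-K9 H3(1-18) peptide, both at 50 nM. The complex formed 30 min before a 30 min compound exposure at room temperature, in PBS pH 7.4.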
# [19] = biological target: Transient receptor potential cation channel subfamily V member 1 (Homo sapiens) (UniProt Q8NER1); assay: HTS Assay for Compounds that Act as Enhancers of the Vanilloid Receptor 1 (AID 488979); also: potency is read from the fitted curve at half-maximal effect
# Outline: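 Calcium influx kinetics via Fluo-8 (480/520 nm) in TRPV1-expressing cells, 2000/well cultured overnight at 35.5C. Compound-alone read 3 min (agonist phase), followed by EC20 capsaicin challenge for 2 min (enhancer phase).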
# [20] = qHTS for Inhibitors of ATXN expression: Validation (AID 588378); also: potency is read from the fitted curve at half-maximal effect; nearly all actives have a fitted effect of over 75% in size
# Outline: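 Luciferase luminescence (Bright-Glo) from an ATXN2-FFLuc HEK293 line after 24 h compound exposure at 37 °C, preceded by a CellTiter-Fluor fluorescence viability read. Serial dilutions of a reference ATXN2 inhibitor and a luciferase inhibitor served as controls.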
# [21] = HTS Assay for Allosteric Antagonists of the Human D2 Dopamine Receptor: Hit Validation in HTRF (AID 624455)
# Outline: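 First, antagonism was screened by calcium flux in a force-coupled, inducible Hek293 Trex D2 line challenged with EC80 dopamine. Hits then went into an HTRF assay in cells stably expressing D1, testing inhibition of the D1 response.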
# Tags tell the direction and shape of the fitted curve or compound fluorescence and quenching.
# Sequence of UniProt Q9HAZ1 (Q9HAZ1 whole entry, looked up): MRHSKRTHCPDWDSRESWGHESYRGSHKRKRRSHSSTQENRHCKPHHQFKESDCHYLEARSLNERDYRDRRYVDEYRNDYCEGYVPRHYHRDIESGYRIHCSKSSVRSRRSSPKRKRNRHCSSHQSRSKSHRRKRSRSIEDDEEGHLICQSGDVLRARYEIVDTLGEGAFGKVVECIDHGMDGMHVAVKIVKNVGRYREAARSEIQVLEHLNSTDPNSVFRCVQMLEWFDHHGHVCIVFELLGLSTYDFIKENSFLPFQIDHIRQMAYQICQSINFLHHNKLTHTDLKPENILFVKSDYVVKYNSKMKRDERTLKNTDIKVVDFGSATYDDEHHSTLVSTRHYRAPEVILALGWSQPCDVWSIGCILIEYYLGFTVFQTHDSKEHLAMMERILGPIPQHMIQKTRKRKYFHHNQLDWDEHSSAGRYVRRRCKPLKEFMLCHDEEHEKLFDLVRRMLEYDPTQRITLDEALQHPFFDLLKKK
# Sequence of UniProt Q99549 (Q99549 whole entry, looked up): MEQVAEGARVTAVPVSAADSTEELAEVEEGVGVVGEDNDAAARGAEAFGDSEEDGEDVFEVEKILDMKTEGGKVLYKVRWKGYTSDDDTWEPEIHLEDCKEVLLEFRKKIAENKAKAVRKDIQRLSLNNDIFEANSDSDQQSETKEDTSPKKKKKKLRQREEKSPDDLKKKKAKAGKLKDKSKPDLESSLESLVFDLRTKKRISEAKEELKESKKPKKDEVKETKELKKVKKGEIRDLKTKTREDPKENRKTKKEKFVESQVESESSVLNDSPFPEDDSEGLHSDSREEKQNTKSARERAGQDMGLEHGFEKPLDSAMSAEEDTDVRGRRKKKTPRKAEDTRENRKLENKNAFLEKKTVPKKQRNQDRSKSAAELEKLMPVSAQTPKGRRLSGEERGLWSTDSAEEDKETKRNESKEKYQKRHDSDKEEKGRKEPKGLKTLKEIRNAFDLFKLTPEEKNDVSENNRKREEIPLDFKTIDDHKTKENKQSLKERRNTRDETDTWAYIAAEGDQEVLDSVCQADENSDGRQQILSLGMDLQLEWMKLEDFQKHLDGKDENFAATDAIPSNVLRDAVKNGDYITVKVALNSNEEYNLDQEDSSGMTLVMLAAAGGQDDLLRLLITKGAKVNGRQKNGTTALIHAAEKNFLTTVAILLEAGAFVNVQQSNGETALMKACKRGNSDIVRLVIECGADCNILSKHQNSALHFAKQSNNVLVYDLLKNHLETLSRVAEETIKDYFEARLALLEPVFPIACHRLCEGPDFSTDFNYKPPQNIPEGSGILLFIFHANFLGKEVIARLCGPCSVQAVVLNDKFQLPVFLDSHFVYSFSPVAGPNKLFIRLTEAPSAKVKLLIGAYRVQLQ
# Sequence of UniProt Q07343 (Q07343 whole entry, looked up): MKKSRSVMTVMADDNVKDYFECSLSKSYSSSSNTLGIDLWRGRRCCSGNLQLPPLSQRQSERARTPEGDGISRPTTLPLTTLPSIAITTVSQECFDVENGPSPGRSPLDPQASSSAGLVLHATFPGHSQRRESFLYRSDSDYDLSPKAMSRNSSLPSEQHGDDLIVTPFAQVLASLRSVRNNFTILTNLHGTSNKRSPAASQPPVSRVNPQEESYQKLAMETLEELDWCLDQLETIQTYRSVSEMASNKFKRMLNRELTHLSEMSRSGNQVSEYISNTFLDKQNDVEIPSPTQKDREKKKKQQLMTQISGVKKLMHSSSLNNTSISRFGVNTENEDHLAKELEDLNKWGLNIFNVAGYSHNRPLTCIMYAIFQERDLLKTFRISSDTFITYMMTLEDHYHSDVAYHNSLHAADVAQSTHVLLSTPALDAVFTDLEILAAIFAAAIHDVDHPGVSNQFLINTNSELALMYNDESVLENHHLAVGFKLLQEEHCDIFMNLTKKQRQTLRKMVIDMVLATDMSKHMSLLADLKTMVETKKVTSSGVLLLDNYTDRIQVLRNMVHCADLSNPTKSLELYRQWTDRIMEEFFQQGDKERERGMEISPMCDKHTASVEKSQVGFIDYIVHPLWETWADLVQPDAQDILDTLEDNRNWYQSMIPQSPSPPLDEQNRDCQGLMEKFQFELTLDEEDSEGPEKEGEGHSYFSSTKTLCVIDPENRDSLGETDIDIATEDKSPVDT
# Sequence of UniProt Q8NER1 (Q8NER1 whole entry, looked up): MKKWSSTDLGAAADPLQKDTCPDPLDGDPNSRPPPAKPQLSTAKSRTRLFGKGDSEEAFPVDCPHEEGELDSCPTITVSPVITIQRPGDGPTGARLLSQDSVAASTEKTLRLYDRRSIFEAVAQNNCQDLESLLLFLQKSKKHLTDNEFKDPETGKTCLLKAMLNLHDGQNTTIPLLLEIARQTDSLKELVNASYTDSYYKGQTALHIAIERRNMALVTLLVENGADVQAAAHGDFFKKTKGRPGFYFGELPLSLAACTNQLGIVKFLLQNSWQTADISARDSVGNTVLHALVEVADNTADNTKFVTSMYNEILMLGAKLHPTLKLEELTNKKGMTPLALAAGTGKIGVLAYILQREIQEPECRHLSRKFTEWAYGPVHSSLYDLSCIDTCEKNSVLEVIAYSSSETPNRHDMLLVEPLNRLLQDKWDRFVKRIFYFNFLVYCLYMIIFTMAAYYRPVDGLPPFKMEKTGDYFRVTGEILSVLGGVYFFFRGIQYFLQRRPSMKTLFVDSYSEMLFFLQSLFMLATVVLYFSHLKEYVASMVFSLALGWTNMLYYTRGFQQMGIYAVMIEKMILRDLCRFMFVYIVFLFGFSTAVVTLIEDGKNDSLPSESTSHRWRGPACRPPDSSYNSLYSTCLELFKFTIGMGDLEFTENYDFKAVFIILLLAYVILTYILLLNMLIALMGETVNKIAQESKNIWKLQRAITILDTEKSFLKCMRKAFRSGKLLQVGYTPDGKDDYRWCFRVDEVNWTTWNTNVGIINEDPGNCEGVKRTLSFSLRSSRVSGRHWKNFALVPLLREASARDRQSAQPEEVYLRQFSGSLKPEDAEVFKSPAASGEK
# Sequence of UniProt O94782 (O94782 whole entry, looked up): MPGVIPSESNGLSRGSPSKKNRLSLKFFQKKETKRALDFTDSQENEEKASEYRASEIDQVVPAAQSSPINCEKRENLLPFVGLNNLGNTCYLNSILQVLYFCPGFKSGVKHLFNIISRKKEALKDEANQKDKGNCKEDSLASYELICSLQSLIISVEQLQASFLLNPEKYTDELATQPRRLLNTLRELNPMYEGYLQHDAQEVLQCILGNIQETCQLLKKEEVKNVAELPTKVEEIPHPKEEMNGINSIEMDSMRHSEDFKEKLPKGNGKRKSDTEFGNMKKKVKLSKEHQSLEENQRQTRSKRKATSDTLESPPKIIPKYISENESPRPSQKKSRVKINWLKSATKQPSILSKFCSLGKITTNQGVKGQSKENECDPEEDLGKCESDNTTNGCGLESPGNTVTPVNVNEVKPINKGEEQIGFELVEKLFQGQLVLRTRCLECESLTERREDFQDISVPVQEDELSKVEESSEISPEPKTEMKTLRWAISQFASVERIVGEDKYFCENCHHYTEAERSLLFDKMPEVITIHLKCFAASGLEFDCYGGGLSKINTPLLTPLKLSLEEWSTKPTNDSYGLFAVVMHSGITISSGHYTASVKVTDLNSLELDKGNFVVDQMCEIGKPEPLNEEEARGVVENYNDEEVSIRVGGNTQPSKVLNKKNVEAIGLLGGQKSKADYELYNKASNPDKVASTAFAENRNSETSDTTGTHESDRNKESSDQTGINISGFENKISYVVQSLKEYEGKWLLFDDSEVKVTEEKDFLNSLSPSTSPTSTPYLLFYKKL
# Sequence of UniProt P08482 (P08482 whole entry, looked up): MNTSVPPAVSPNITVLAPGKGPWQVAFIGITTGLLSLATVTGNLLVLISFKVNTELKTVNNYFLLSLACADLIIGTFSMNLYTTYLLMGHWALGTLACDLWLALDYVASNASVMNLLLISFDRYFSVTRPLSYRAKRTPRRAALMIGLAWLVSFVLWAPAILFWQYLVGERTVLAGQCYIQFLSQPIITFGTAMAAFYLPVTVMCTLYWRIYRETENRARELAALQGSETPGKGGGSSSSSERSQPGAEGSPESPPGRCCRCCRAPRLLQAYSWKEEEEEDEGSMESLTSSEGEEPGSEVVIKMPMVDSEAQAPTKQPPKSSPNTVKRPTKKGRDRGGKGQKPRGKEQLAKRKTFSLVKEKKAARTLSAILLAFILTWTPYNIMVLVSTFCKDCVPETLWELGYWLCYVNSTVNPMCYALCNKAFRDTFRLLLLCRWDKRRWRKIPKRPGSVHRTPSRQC
# Sequence of UniProt O15648 (O15648 whole entry, looked up): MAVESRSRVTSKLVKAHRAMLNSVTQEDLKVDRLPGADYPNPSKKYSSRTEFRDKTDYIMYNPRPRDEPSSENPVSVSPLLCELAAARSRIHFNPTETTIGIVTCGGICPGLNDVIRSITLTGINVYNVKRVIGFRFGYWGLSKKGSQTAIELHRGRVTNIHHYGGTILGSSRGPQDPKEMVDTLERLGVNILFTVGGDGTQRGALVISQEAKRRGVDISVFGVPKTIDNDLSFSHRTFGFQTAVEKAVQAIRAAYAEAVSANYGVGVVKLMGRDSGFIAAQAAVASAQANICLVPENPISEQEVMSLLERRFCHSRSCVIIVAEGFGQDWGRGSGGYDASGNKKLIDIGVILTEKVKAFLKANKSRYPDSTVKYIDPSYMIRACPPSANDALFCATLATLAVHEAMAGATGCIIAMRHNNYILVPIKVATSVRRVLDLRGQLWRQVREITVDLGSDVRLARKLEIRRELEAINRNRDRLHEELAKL
# Sequence of UniProt P02791 (P02791 2-175 limits assumed): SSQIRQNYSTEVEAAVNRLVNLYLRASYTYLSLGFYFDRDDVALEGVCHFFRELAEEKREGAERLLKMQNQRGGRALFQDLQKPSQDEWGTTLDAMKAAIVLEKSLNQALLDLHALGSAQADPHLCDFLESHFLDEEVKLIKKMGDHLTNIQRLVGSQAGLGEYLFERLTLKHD
smiles,measurement,setting,value
CN(C)c1ccc(-c2nccc(NCc3cccs3)n2)cc1,"activity change, negative = inhibition",[1],inconclusive: -46.1% [inhibitor]
same,Potency,[2],inactive
same,Potency,[3],"inconclusive: 7.94 µM [activator, partial curve]"
same,Potency,[4],"inconclusive: 1.26 µM [inhibitor, partial curve]"
same,Potency,[5],"inconclusive: 22.4 µM [falling, single point]"
same,Potency,[6],"inconclusive: 25.1 µM [inhibitor, single point]"
COc1cccc(-c2nc(NCc3cccnc3)c3ccccc3n2)c1,"activity change, negative = inhibition",[1],inactive: 27.1%
same,Potency,[3],"inconclusive: 10 µM [activator, single point]"
same,activation,[4],inactive: -25.6%
same,Potency,[5],"inconclusive: 14.1 µM [falling, partial curve]"
same,Potency,[7],"inconclusive: 35.5 µM [inhibitor, single point]"
same,Potency,[6],"inconclusive: 28.2 µM [inhibitor, single point]"
C1CCC(N=C(NC23CC4CC(CC(C4)C2)C3)N2CCOCC2)CC1,"activity change, negative = inhibition",[1],inconclusive: -34.8% [inhibitor] [at 38 µM]
same,"activity change, negative = inhibition",[8],inconclusive: 7.47%
same,Potency,[9],"inconclusive: 7.94 µM [inhibitor, partial curve]"
same,Potency,[10],active: 17.8 µM
same,Potency,[11],"inconclusive: 6.31 µM [inhibitor, partial curve]"
same,Potency,[12],"inconclusive: 17.8 µM [inhibitor, single point]"
same,Potency,[13],"inconclusive: 10 µM [inhibitor, single point]"
same,Potency,[14],"inconclusive: 14.1 µM [inhibitor, partial curve]"
same,Potency,[15],inactive
same,Potency,[16],"inconclusive: 0.9 nM [inhibitor, full curve]"
same,Potency,[17],"inconclusive: 849 nM [activator, full curve, poor fit]"
same,Potency,[18],inactive
same,Potency,[19],"inconclusive: 11.2 µM [activator, single point]"
same,Potency,[20],"inconclusive: 17.8 µM [inhibitor, partial curve, poor fit]"
same,Potency,[21],inactive
same,Potency,[6],"inconclusive: 28.2 µM [inhibitor, single point]"
